Measured values: PubChem BioAssay (Tox21)
Where “and” joins values, the source holds several entries; their conditions need not be identical. Equal entries are not always repeated. Inconclusive results, whose numbers are uncertain, are shown with a selection of clear calls. For part of these data: Where the call is inconclusive, the potency comes from a doubtful curve fit. Calls of active or inactive are those of the source. Unless noted, calls come from the whole dose curve; as a rule, active = well fitted curve in the direction sought with a large enough effect in the repeat runs; inconclusive = weak or mixed curves; inactive = no such curve, though single readings can be large; an effect the other way counts as inactive or inconclusive.

Assays:
[1] = target: Peroxisome proliferator-activated receptor gamma (Homo sapiens) (UniProt P37231); assay: qHTS assay to identify small molecule agonists of the peroxisome proliferator-activated receptor gamma (PPARg) signaling pathway (AID 743094; active = well fitted activation curve with a large enough effect in the signal ratio in the repeat runs, not every such curve was filed as active; inconclusive = weak or mixed curves, or effect the other way; inactive = no such curve, though single readings can be large or run the other way; the % refers to the signal ratio; note: potency is the fitted concentration of half-maximal effect); settings: HEK293H PPARg-UAS-bla, beta-lactamase FRET ratio, 17 h; activation: at 57 µM (top of the series) unless noted
Outline: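 Cells from the PPARg UAS-bla HEK293H line are plated and incubated 5 h at 37C. Compounds in DMSO are pinned in and left 17 h at 37C. LiveBLAzer B/G substrate is then added for 1 h at room temperature before fluorescence is measured.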

[2] = target: Peroxisome proliferator-activated receptor gamma (Homo sapiens) (UniProt P37231); assay: qHTS assay to identify small molecule antagonists of the peroxisome proliferator-activated receptor gamma (PPARg) signaling pathway (AID 743191; calls by dose curve; note: nearly all actives have a fitted effect of over 30% in size; note: potency is the fitted concentration of half-maximal effect; for ratio activity, negative = inhibition: % is set by controls: 0 for no effect and ±100 for the full control effect); settings: HEK293H PPARg-UAS-bla, beta-lactamase ratio, antagonist, 17 h; ratio activity, negative = inhibition: at 62.6 µM (top of the series) unless noted
Outline: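 GeneBLAzer PPARg UAS-bla HEK293H cells, 5 h post-plating, exposed to compounds 17 h at 37C. LiveBLAzer B/G FRET substrate added for 1 h at room temperature; beta-lactamase reporter read by fluorescence intensity.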

[3] = qHTS assay for small molecule activators of the heat shock response signaling pathway (AID 743210; active = well fitted activation curve with a large enough effect in the signal ratio in the repeat runs, with a control signal flat, not every such curve was filed as active; inconclusive = weak or mixed curves; the % refers to the signal ratio; note: potency is the fitted concentration of half-maximal effect); settings: HeLa HSE-bla reporter, beta-lactamase ratio, 5 h; activation: at 62.6 µM (top of the series)
Outline: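 Following overnight attachment, HSE-bla HeLa cells received test compounds for 5 h at 37 C; beta-lactamase activity was then detected via FRET substrate fluorescence.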

[4] = qHTS assay to identify small molecule agonists of the farnesoid-X-receptor (FXR) signaling pathway - cell viability counter screen (AID 743218); settings: FXR-bla HEK293T viability, CellTiter-Glo luminescence, 16 h; viability change, negative = cytotoxic: at 62.6 µM (top of the series) unless noted; note: potency is the fitted concentration of half-maximal effect; nearly all actives have a fitted effect of over 45% in size
Outline: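 Cells were seeded, left 5 h at 37 C and 5% CO2, then dosed with compound in DMSO for 16 h. After the beta-lactamase FRET read, CellTiter-Glo was added and luminescence measured 30 min later.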

[5] = target: Peroxisome proliferator-activated receptor delta (Homo sapiens) (UniProt Q03181); assay: qHTS assay to identify small molecule antagonists of the peroxisome proliferator-activated receptor delta (PPARd) signaling pathway (AID 743215; active = well fitted inhibition curve with a large enough effect in the signal ratio in the repeat runs, not every such curve was filed as active; inconclusive = weak or mixed curves, or effect the other way; inactive = no such curve, though single readings can be large or run the other way; the % refers to the signal ratio;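 note: cells stimulated with agonist L165041 at 300 nM final during compound exposure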; note: potency is the fitted concentration of half-maximal effect; for ratio activity, negative = inhibition: % is set by controls: 0 for no effect and ±100 for the full control effect); settings: HEK293H PPARd-UAS-bla, beta-lactamase FRET ratio, antagonist, 17 h; ratio activity, negative = inhibition: at 62 µM (top of the series) unless noted
Outline: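 Cells: HEK293H with a UAS-driven beta-lactamase reporter responsive to PPARd. Compounds were co-added with L165041 (300 nM, final) and incubated 17 h at 37 C before a 2 h room-temperature FRET substrate step and fluorescence reading.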

[6] = qHTS assay to identify small molecule agonists of the vitamin D receptor (VDR) signaling pathway - cell viability counter screen (AID 743224); settings: VDR-bla HEK293T viability, CellTiter-Glo luminescence, 16 h; activity change, negative = cytotoxicity: at 62.6 µM (top of the series) unless noted; note: potency is the fitted concentration of half-maximal effect; nearly all actives have a fitted effect of over 50% in size
Outline: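 Cells: VDR-bla, 2,000/well, settled 4 h. Treatment: compounds in DMSO, 16 h, 37C/5% CO2. Readout: CellTiter-Glo luminescence after 30 min RT.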

[7] = qHTS assay for small molecule agonists of the antioxidant response element (ARE) signaling pathway (AID 743202; active = well fitted activation curve with a large enough effect in the signal ratio in the repeat runs, not every such curve was filed as active; inconclusive = weak or mixed curves, or effect the other way; inactive = no such curve, though single readings can be large or run the other way; the % refers to the signal ratio; note: potency is the fitted concentration of half-maximal effect); settings: HepG2 ARE-bla reporter, beta-lactamase FRET, 16 h; activation: at 73.3 µM (top of the series) unless noted
Outline: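 HepG2 ARE-bla cells; 16 h treatment at 37 C; FRET-based beta-lactamase fluorescence read after 2 h substrate incubation at room temperature.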

[8] = qHTS assay for small molecule agonists of the antioxidant response element (ARE) signaling pathway - cell viability counter screen (AID 743203; calls by dose curve; note: potency is the fitted concentration of half-maximal effect; nearly all actives have a fitted effect of over 55% in size); settings: ARE-bla HepG2 viability, CellTiter-Glo luminescence, 16 h; viability change, negative = cytotoxic: at 73.3 µM (top of the series)
Outline: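 Cytotoxicity was tested in parallel with the ARE reporter screen. ARE-bla HepG2 cells were exposed to compounds for 16 hrs, and viability was taken from CellTiter-Glo luminescence.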

[9] = qHTS assay to identify small molecule antagonists of the peroxisome proliferator-activated receptor delta (PPARd) signaling pathway - cell viability counter screen (AID 743213); settings: PPARd-bla HEK293H viability, CellTiter-Glo luminescence, 17 h; viability change, negative = cytotoxic: at 62 µM (top of the series) unless noted; note: potency is the fitted concentration of half-maximal effect; nearly all actives have a fitted effect of over 50% in size
Outline: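 Luminescence from CellTiter-Glo, added after the bla read and incubated 30 min at room temperature, gives viability of HEK293H PPARd-bla cells exposed to compounds for 17 h at 37 C with 300 nM L165041.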

[10] = target: Bile acid receptor (Homo sapiens) (UniProt Q96RI1); assay: qHTS assay to identify small molecule antagonists of the farnesoid-X-receptor (FXR) signaling pathway (AID 743217; active = well fitted inhibition curve with a large enough effect in the signal ratio in the repeat runs, not every such curve was filed as active; inconclusive = weak or mixed curves, or effect the other way; inactive = no such curve, though single readings can be large or run the other way; the % refers to the signal ratio; note: potency is the fitted concentration of half-maximal effect); settings: HEK293T FXR-UAS-bla, beta-lactamase ratio, CDCA-stimulated, 16 h; activity change, negative = inhibition: at 62.6 µM (top of the series) unless noted
Outline: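 Cells carrying a UAS-driven beta-lactamase reporter (GeneBLAzer FXR-UAS-bla HEK 293T) were plated and rested 5 h at 37 °C. Compounds in DMSO were added alongside chenodeoxycholic acid agonist at 50 uM final and left 16 h at 37 °C before FRET substrate readout.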

[11] = target: Bile acid receptor (Homo sapiens) (UniProt Q96RI1); assay: qHTS assay to identify small molecule agonists of the farnesoid-X-receptor (FXR) signaling pathway (AID 743220; active = well fitted activation curve with a large enough effect in the signal ratio in the repeat runs, not every such curve was filed as active; inconclusive = weak or mixed curves, or effect the other way; the % refers to the signal ratio; note: % is set by controls: 0 for no effect and ±100 for the full control effect); settings: HEK293T FXR-UAS-bla, beta-lactamase FRET ratio, 16 h
Outline: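 FXR-UAS-bla HEK 293T cells carrying a UAS-driven beta-lactamase reporter were plated for 5 h at 37C/5% CO2, then exposed to DMSO-dissolved Tox21 10K compounds for 16 h at 37C. A LiveBLAzer B/G FRET substrate was loaded for 2 h at room temperature before fluorescence reading.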

[12] = qHTS assay to identify small molecule antagonists of the farnesoid-X-receptor (FXR) signaling pathway - cell viability counter screen (AID 743221; active = well fitted cell-killing curve with a large enough effect in the repeat runs, not every such curve was filed as active; inconclusive = weak or mixed curves, or effect the other way; inactive = no such curve, though single readings can be large or run the other way; note: potency is the fitted concentration of half-maximal effect; nearly all actives have a fitted effect of over 50% in size); settings: FXR-bla HEK293T viability, CellTiter-Glo luminescence, 16 h; activity change, negative = cytotoxicity: at 62.6 µM (top of the series)
Outline: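 Multiplexed counter screen: viability of FXR-bla HEK 293T cells under agonist stimulation by chenodeoxycholic acid (50 uM, final) and test compound for 16 h at 37 C, measured by CellTiter-Glo luminescence in the reporter wells.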

[13] = target: Vitamin D3 receptor (Homo sapiens) (UniProt P11473); assay: qHTS assay to identify small molecule antagonists of the vitamin D receptor (VDR) signaling pathway (AID 743223; active = well fitted inhibition curve with a large enough effect in the signal ratio in the repeat runs, not every such curve was filed as active; inconclusive = weak or mixed curves, or effect the other way; inactive = no such curve, though single readings can be large or run the other way; the % refers to the signal ratio; note: potency is the fitted concentration of half-maximal effect; for activity change, negative = inhibition: % is set by controls: 0 for no effect and ±100 for the full control effect); settings: VDR-UAS-bla HEK293T, beta-lactamase FRET ratio, 16 h; activity change, negative = inhibition: at 61 µM (top of the series) unless noted
Outline: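 Cells carrying a VDR-driven beta-lactamase reporter (VDR-bla) were co-treated with compound and 3 nM final 1alpha,25-dihydroxyvitamin D3 for 16 h at 37C; reporter activity was measured as FRET substrate fluorescence after 2 h at room temperature.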

[14] = qHTS assay to identify small molecule antagonists of the vitamin D receptor (VDR) signaling pathway - cell viability counter screen (AID 743225); settings: VDR-bla HEK293T viability, CellTiter-Glo luminescence, 16 h; viability change, negative = cytotoxic: at 61 µM (top of the series) unless noted; note: potency is the fitted concentration of half-maximal effect; nearly all actives have a fitted effect of over 50% in size
Outline: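 HEK293T VDR-bla; cpd + 1a,25-(OH)2D3 3 nM final, 16 h 37C/5% CO2; B/G FRET substrate 2 h RT; then CellTiter-Glo 30 min RT, luminescence.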

[15] = qHTS assay to identify small molecule antagonists of the peroxisome proliferator-activated receptor gamma (PPARg) signaling pathway - cell viability counter screen (AID 743194); settings: PPARg-bla HEK293H viability, CellTiter-Glo luminescence, 17 h, co-treated with 50 nM rosiglitazone; activity change, negative = cytotoxicity: at 62.6 µM (top of the series) unless noted; note: potency is the fitted concentration of half-maximal effect; nearly all actives have a fitted effect of over 55% in size
Outline: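 Cytotoxicity counter screen in PPARg-bla HEK293H cells, same wells as reporter assay. Compounds plus 50 nM rosiglitazone (final) for 17 h at 37 C, then viability read by CellTiter-Glo luminescence.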

[16] = qHTS assay to identify small molecule agonists of the peroxisome proliferator-activated receptor delta (PPARd) signaling pathway - cell viability counter screen (AID 743211); settings: PPARd-bla HEK293H viability, CellTiter-Glo luminescence, 17 h; activity change, negative = cytotoxicity: at 62.6 µM (top of the series); note: potency is the fitted concentration of half-maximal effect; nearly all actives have a fitted effect of over 55% in size
Outline: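 Counter screen for cytotoxicity run in parallel with the PPARd reporter screen. Beta-lactamase reporter HEK293H cells exposed to compounds 17 h; ATP-based CellTiter-Glo luminescence quantified viability.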

[17] = target: Peroxisome proliferator-activated receptor delta (Homo sapiens) (UniProt Q03181); assay: qHTS assay to identify small molecule agonists of the peroxisome proliferator-activated receptor delta (PPARd) signaling pathway (AID 743212; calls by dose curve; note: potency is the fitted concentration of half-maximal effect); settings: HEK293H PPARd-UAS-bla, beta-lactamase FRET ratio, 17 h; activation: at 62.6 µM (top of the series) unless noted
Outline: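 Tox21 library screened in GeneBLAzer PPARd UAS-bla HEK293H cells. After compound treatment at 37 C, a FRET-based beta-lactamase substrate was applied for 2 h and fluorescence recorded.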

[18] = target: Vitamin D3 receptor (Homo sapiens) (UniProt P11473); assay: qHTS assay to identify small molecule agonists of the vitamin D receptor (VDR) signaling pathway (AID 743222; calls by dose curve; note: potency is the fitted concentration of half-maximal effect); settings: HEK293T VDR-UAS-bla, beta-lactamase FRET ratio, 16 h; activation: at 63.5 µM (top of the series) unless noted
Outline: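 Cells carrying a VDR-driven beta-lactamase reporter are seeded at 2,000 per well and rested 4 h. Compounds in DMSO are added for 16 h at 37C, and FRET substrate fluorescence is measured after 2 h at room temperature.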
Tags give direction and shape of the fitted curve or compound fluorescence and quenching.

Sequence of UniProt P37231 (P37231 whole entry, looked up): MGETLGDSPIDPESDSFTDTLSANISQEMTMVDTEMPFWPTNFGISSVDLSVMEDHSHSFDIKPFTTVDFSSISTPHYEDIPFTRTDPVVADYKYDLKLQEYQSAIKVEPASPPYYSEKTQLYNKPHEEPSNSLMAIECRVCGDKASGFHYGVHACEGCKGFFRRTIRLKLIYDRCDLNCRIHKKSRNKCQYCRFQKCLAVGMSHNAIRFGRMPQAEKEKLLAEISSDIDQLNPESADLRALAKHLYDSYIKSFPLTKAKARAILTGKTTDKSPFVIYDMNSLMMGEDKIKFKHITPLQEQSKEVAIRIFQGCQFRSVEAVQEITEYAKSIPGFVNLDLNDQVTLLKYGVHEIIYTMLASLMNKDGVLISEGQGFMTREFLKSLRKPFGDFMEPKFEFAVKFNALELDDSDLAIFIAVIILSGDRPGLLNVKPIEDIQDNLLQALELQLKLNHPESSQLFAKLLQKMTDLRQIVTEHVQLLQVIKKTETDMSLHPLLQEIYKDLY
Sequence of UniProt P11473 (P11473 whole entry, looked up): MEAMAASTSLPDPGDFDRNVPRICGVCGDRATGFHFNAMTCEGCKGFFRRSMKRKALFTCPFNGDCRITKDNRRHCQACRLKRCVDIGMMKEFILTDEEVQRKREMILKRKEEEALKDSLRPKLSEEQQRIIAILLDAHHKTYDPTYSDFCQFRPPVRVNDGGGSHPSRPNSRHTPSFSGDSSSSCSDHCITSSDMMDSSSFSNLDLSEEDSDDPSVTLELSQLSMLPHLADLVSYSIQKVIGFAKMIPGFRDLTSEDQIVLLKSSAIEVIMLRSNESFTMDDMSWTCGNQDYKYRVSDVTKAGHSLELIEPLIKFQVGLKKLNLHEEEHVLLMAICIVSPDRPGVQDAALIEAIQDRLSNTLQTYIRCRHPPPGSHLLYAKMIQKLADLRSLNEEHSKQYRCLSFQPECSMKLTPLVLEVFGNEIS
Sequence of UniProt Q03181 (Q03181 whole entry, looked up): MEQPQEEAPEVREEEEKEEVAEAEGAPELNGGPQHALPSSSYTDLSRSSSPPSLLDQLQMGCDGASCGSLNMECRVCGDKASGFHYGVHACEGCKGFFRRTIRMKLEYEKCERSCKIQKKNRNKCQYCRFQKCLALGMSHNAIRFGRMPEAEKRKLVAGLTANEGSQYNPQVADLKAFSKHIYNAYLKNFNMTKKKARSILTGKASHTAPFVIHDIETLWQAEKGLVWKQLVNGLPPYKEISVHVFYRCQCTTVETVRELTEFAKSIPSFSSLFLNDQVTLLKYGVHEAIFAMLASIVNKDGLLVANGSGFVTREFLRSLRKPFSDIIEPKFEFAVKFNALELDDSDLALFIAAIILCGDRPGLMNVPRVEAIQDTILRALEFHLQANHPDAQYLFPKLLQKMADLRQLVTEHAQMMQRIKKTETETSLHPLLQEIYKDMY
Sequence of UniProt Q96RI1 (Q96RI1 whole entry, looked up): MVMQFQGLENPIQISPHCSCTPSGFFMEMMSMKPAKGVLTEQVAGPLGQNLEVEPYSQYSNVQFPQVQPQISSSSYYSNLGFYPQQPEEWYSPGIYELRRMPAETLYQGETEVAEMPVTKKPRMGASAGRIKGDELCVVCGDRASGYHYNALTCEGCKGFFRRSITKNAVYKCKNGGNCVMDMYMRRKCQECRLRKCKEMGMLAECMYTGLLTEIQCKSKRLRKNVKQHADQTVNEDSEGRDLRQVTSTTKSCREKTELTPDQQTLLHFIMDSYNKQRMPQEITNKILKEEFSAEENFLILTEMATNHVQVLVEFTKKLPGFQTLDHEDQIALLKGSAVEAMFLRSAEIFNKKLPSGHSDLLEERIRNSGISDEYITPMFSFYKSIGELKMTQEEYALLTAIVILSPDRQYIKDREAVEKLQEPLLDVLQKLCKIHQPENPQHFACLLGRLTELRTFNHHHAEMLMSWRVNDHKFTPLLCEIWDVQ

CC(C)(c1ccccc1)c1ccc(Nc2ccc(C(C)(C)c3ccccc3)cc2)cc1
inconclusive: Potency [1] 43.6 µM [cytotoxic, partial curve] and 61.7 µM [cytotoxic, single point] | ratio activity, negative = inhibition [2] 1.16% and -22.2% | Potency [3] 15.5 µM and 42 µM | Potency [4] 49 µM [rising, partial curve, poor fit]

O=C1CCC/C=C\CCCCCCCCCC1
inconclusive: Potency [1] 12.3 µM [activator, single point] | ratio activity, negative = inhibition [2] 20.2% | Potency [3] 54.9 µM | Potency [5] 54.9 µM [inhibitor, single point] | Potency [6] 61.7 µM [cytotoxic, single point]

CCCCCCOC(=O)c1ccc(O)cc1
inconclusive: Potency [2] 54.9 µM [inhibitor, single point] | ratio activity, negative = inhibition [2] -71.7% | Potency [7] 68.7 µM [falling, partial curve, poor fit] and 48.6 µM [falling, partial curve, poor fit] | Potency [8] 77 µM [cytotoxic, single point] | Potency [9] 55 µM [cytotoxic, partial curve, poor fit] and 34.7 µM [cytotoxic] | ratio activity, negative = inhibition [5] -55.2% and -20.2% | Potency [10] 55 µM and 54.9 µM [inhibitor, single point] | Potency [4] 1.23 µM [rising, full curve, poor fit] | activation ([11]; activation: at 62.6 µM (top of the series) unless noted) 7.4% | Potency [12] 61.7 µM [falling, single point] | Potency [13] 0.195 µM [inhibitor, single point] | activity change, negative = inhibition [13] -46.3% | Potency [6] 55 µM [cytotoxic, single point] and 61.7 µM [cytotoxic, single point] | Potency [14] 43.7 µM [cytotoxic, partial curve, poor fit] and 61.7 µM [cytotoxic, single point]
inactive: activation ([11]; at 62.6 µM (top of the series)) 0.093%

NC(=O)C1(N2CCCCC2)CCN(CCCN2c3ccccc3CCc3ccc(Cl)cc32)CC1
inconclusive: Potency [2] 11.9 µM [inhibitor, partial curve] | Potency [7] 33.5 µM [falling, single point] | Potency [3] 33.5 µM | Potency [17] 4.22 µM [rising, full curve] | Potency [10] 33.5 µM [inhibitor, single point] | Potency [18] 16.8 µM [rising, partial curve, poor fit] | Potency [13] 23.9 µM
active: Potency [15] 29.8 µM | Potency [8] 16.8 µM | Potency [16] 11.9 µM | Potency [9] 18.8 µM | Potency [5] 29.8 µM | Potency [4] 11.9 µM | Potency [12] 29.8 µM | Potency [14] 21.3 µM
